Measured values: PMC12040169 (PLOS Biology, 2025)
This is one part of the list.

system: T1, C. trachomatis L2/434/Bu expressing GFP (CTL2-GFP); parameters: species or system HeLa; C. trachomatis total inclusion area by high-content imaging, normalised to DMSO; conditions: total inclusion area; 28.5 h, 10 µM; inhibitor
T1 construct: L2/434/Bu GFP intracellular growth in HeLa cells
In short: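 Host cell viability was gauged from Hoechst-stained nuclei counts, while chlamydial growth was taken from total inclusion area and inclusion number per well. Cells were fixed and imaged by high-content microscopy once bulk GFP and resorufin fluorescence had been measured.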

Compared with Cc1ccc(S(=O)(=O)N2CCCC(C(=O)O)C2)cc1 (stereo not shown) [CBK100948], CCOc1ccc(S(=O)(=O)N2CCC(C(=O)O)CC2)cc1Cl [CBK269759] is higher in “% of control remaining” value: 78.3131 for the first, 89.1335 for the second.

Going from COc1ccc(C(=O)COc2nc3c(C(F)(F)F)cc(C4CC4)nc3o2)cc1 [CBK269498] to Nc1ncc(-c2ccoc2)nc1-c1ccc(C(=O)O)cc1 [CBK063972], the “% of control remaining” value rises from 57.7223 to 72.7367.

First: CC(C)C(=O)N[C@H]1C[C@@H](Cc2cc(CN3CCOCC3)on2)C1(C)C [CBK289248]
Second: Cc1ncc([N+](=O)[O-])n1CCOC(=O)NC(N1CCOCC1)C(Cl)(Cl)Cl (stereo not shown) [CBK261299]
The “% of control remaining” value of the first is higher: 100.655 for the first, 90.8087 for the second.

First: O=C(O)[C@H]1CCCN1Cc1cc(Cl)ccc1OCCCn1ccnc1 [CBK307436]
Second: Cc1nc2c(OCc3ccc(F)c(F)c3)cccn2c1N(C)C(=O)CCC1CCCC1 [CBK147202]
The “% of control remaining” value of the first is lower: 28.443 for the first, 128.749 for the second.

First: CCc1ccc(-c2ccc(-c3cc(C(=O)O)c4cc(Br)ccc4n3)o2)cc1 [CBK300543]
Second: O=C(O)c1ccccc1-c1ccc(-c2cc(C(=O)O)c3cc(F)ccc3n2)o1 [CBK269051]
The “% of control remaining” value of the first is lower: 48.1526 for the first, 96.4866 for the second.

Going from COc1ccc(NC(=O)CC(CN(C)Cc2ccccc2)C(=O)O)cc1 (stereo not shown) [CBK286854] to CC(C)NS(=O)(=O)c1ccc(NC(=O)Cc2cccc3ccccc23)cc1 [CBK268102], the “% of control remaining” value rises from 99.6212 to 106.115.

Going from COc1ccc(CNC(=O)[C@H]2C=CCN2C(=O)c2cccs2)cc1 [CBK282325] to COc1ccc([C@@H]2CCN(C(=O)Cc3ccccc3F)C[C@H]2O)cc1 [CBK283756], the “% of control remaining” value falls from 95.5488 to 79.7558.

Going from CCCCOc1nccnc1/C=C/c1ccccc1 [CBK106890] to CC(C)(C)S(=O)(=O)Nc1nccnc1-c1ccc(OCc2ccccc2)cc1 [CBK050886], the “% of control remaining” value rises from 103.09 to 123.375.

First: Cc1cc(=O)[nH]c(SCC(=O)O)c1C#N [CBK019224]
Second: COC(=O)c1cccc(OCC(O)Cn2nc(C)c(C)c(C#N)c2=O)c1 (stereo not shown) [CBK305563]
The “% of control remaining” value of the first is higher: 87.7269 for the first, 77.3018 for the second.

First: CCCCCCc1ccc(NS(=O)(=O)c2cc3c(NCCN(C)C)nccc3s2)cc1 [CBK038253C]
Second: C=C(C)CNC(=O)c1cc(-c2cccc(NC(C)=O)c2)cnc1N(C)S(C)(=O)=O [CBK076622]
The “% of control remaining” value of the first is lower: 77.4198 for the first, 102.052 for the second.

Going from CC(C)(C)C(=O)N1CC(n2nc(-c3ccccc3)ccc2=O)C1 [CBK284623] to CC(C)[C@H]1CN(Cc2ccccc2F)CCN1C(=O)Cn1ncc2ccccc2c1=O [CBK286172], the “% of control remaining” value rises from 90.9091 to 120.611.

First: CCN(CC)CCSc1nc2sc3c(c2c(=O)n1-c1ccccc1)CC(C)(C)OC3 [CBK263728]
Second: CC1(C)Cc2c(sc(NC(=O)Cc3ccccc3)c2C(=O)O)CO1 [CBK264354]
The “% of control remaining” value of the first is lower: 74.2335 for the first, 106.555 for the second.

Going from Cc1ccc(C(C)(C)CC(C)NC2C3CC4CC(C3)CC2C4)o1 (stereo not shown) [CBK262871] to CC(O)(CC(=O)O)C12CC3CC(CC(C3)C1)C2 (stereo not shown) [CBK261245], the “% of control remaining” value falls from 117.627 to 93.75.

First: Cc1cc(C)n(CC(C)CNC(=O)CCCN(C)C)n1 (stereo not shown) [CBK304831]
Second: Cc1nc2cc(OCc3nc(C(=O)N(C)CCN(C)C)co3)ccc2s1 [CBK306685]
The “% of control remaining” value of the first is higher: 57.8669 for the first, 39.4756 for the second.

Going from O=C(Nc1c(Cl)cccc1Cl)c1ccc(-c2ccccc2)cc1 [CBK262300] to Cc1ccc(C(=O)Nc2cccc(-c3cn4cccnc4n3)c2)cc1 [CBK287503], the “% of control remaining” value rises from 58.936 to 107.81.

Going from OCCN1CCN(c2nc3ccccc3nc2-c2ccccc2)CC1 [CBK268799C] to Cc1ncccc1C(=O)N1CCN(Cc2ccccc2)CC1 [CBK200171], the “% of control remaining” value rises from 88.0101 to 112.17.

Compared with COc1cc(-c2noc(-c3cc(-c4ccccc4)n[nH]3)n2)cc(OC)c1OC [CBK287774], COc1ccc(CCNC(=O)c2cccc(-c3ccc(OC4CCNCC4)cc3)n2)cc1OC [CBK126548T] is lower in “% of control remaining” value: 100.721 for the first, 71.4893 for the second.

First: NS(=O)(=O)c1cccc2c1CC1(CC2)OCCO1 [CBK010703]
Second: O=c1[nH]nc2c(S(=O)(=O)N3CCOCC3)cccn12 [CBK288469]
The “% of control remaining” value of the first is higher: 92.2642 for the first, 45.3223 for the second.

First: CC(C)c1cc(C(=O)N2CCOCC2)c(NC(=O)c2cc(-c3cccnc3)nc3ccc(Br)cc23)s1 [CBK267763]
Second: O=C(c1ccc(-c2cncc(-c3ccc(Cl)s3)n2)cc1)N1CCOCC1 [CBK138517]
The “% of control remaining” value of the first is higher: 104.685 for the first, 99.1282 for the second.

Going from Cc1nn(CC(=O)N(C)CCn2ccnc2C)c(=O)c2ccccc12 [CBK306536] to CN(C)C(=O)c1ccc(Cn2nc(C(=O)NCCOc3ccccc3)c3ccccc32)cc1 [CBK047700], the “% of control remaining” value rises from 37.2423 to 104.089.

First: O=C(c1ccccc1)c1ccc(NC(=O)c2ccccc2F)c(NC(=O)c2ccccc2F)c1 [CBK265183]
Second: O=C(Nc1nnc(COc2ccccc2)s1)c1cccc2ccccc12 [CBK300487]
The “% of control remaining” value of the first is lower: 60.5464 for the first, 122.85 for the second.

First: CC(C)Sc1nnc(N2C(N)=C(C#N)C(c3cccs3)C3=C2CCCC3=O)s1 (stereo not shown) [CBK293989]
Second: O=C(Nc1sc2c(c1C(=O)N1CCOCC1)CCCCC2)c1cccs1 [CBK307099]
The “% of control remaining” value of the first is lower: 76.1535 for the first, 96.1949 for the second.

Going from CC(C)CN(Cc1ccc2c(c1)OCO2)C(=O)NCc1ccc(Cl)c(Cl)c1 [CBK159069] to CC(C)CCNCc1ccc(-c2cn(CC(=O)NCCc3ccccc3)nn2)cc1 [CBK164740], the “% of control remaining” value falls from 105.286 to 77.8231.

First: CN1CCC(N2CCN(C(=O)c3cncc(-c4[nH]nnc4-c4ccccc4)c3)CC2)CC1 [CBK160327]
Second: O=C(CSc1nnc(-c2ccco2)o1)N1CCN(CC(=O)N2CCCC2)CC1 [CBK295136]
The “% of control remaining” value of the first is lower: 86.5006 for the first, 107.109 for the second.

First: O=C(O)CCC(C(=O)O)N1C(=O)c2c(Cl)c(Cl)c(Cl)c(Cl)c2C1=O (stereo not shown) [CBK264308]
Second: CCOC(=O)CN1C(=O)S/C(=C/c2cc(C)n(-c3ccc(S(N)(=O)=O)cc3)c2C)C1=O [CBK265410]
The “% of control remaining” value of the first is higher: 116.996 for the first, 104.39 for the second.

Going from COc1ccc2c(CN(C)Cc3cc(C)[nH]n3)cn(C)c2c1 [CBK281734] to COc1cc2c(cc1OC)CN(Cc1csc(C)n1)CC2 [CBK126443], the “% of control remaining” value falls from 100.428 to 95.7915.

Going from CCOc1ccccc1NC(=O)CNS(=O)(=O)c1ccccc1 [CBK265860] to COC(=O)CNC(c1ccccc1)c1cc(Br)ccc1N (stereo not shown) [CBK019222], the “% of control remaining” value falls from 134.728 to 91.9543.

First: CCCCNC(=S)NC1CC[C@@]2(c3ccc(Br)cc3)CCN(C)[C@H]2C1 (stereo partly shown) [CBK003781]
Second: COc1ccc(CCN[C@H]2CCC[C@@H]2O)cc1OC [CBK005354G]
The “% of control remaining” value of the first is higher: 101.783 for the first, 32.1829 for the second.

Compared with COCCNC(=O)Cn1nnc(-c2ccc(OC)cc2)n1 [CBK069349], Cc1nnnn1CCC(=O)NCCc1cn2ccccc2n1 [CBK306816] is lower in “% of control remaining” value: 109.889 for the first, 44.7178 for the second.

Compared with Cc1ccc(NC(=O)Cc2ccncc2)c(C)n1 [CBK200385], O=C(CSc1ccc(-n2ccnc2)nn1)Nc1cccnc1 [CBK287635] is higher in “% of control remaining” value: 33.3964 for the first, 89.9701 for the second.

First: C/C(=C(/C(=O)N(N)c1nc2ccccc2s1)C(=O)C(F)(F)F)N1CCC(C(N)=O)(N2CCCCC2)CC1 [CBK265787]
Second: O=S(=O)(Nc1cc(C(F)(F)F)ccc1N1CCOCC1)c1ccc(-c2ccccn2)s1 [CBK062557]
The “% of control remaining” value of the first is lower: 74.1057 for the first, 78.34 for the second.

First: OC(CNc1nccnc1-c1cccc(C(F)(F)F)c1)COc1ccccc1 (stereo not shown) [CBK037010]
Second: NCc1ccc(CN(Cc2ccc(-c3ccccc3)cc2)C(=O)Nc2ccccc2C(F)(F)F)cc1 [CBK046116C]
The “% of control remaining” value of the first is higher: 131.165 for the first, 72.1018 for the second.

Compared with O=C1NCCN/C1=C\C(=O)c1ccc(Br)cc1 [CBK261427], O=C(OCC=C=CSc1ccc([N+](=O)[O-])cc1)c1ccc(F)cc1 [CBK265650] is higher in “% of control remaining” value: 89.8282 for the first, 114.685 for the second.

Compared with Nc1ncnc(Nc2cccc(F)c2)n1 [CBK017447], Cn1nnnc1SCCNC(=O)Nc1cccc(N2CCOC2=O)c1 [CBK306593] is lower in “% of control remaining” value: 95.2133 for the first, 76.4029 for the second.

Going from CC(=O)N1C[C@@H]2OCC(=O)N(Cc3ccccn3)[C@@H]2C1 [CBK289245] to COCCN1C(=O)C2(CC(=O)N(C)C2=O)c2ccccc21 (stereo not shown) [CBK075387], the “% of control remaining” value falls from 130.528 to 114.899.

First: c1ccc2[nH]c(SCCCCCSc3nc4ccccc4[nH]3)nc2c1 [CBK025418]
Second: c1ccc(CN2CCN(Cc3ccccc3)C2c2cccnc2)cc1 [CBK260885]
The “% of control remaining” value of the first is lower: 91.2805 for the first, 111.969 for the second.

Compared with Cc1nc(N2CCOCC2)nc(Nc2ccc(Cl)cc2)c1[N+](=O)[O-] [CBK264685], COc1ccc(C)cc1S(=O)(=O)N(CCO)c1cc(N2CCNCC2)c2occc2c1 [CBK067894C] is lower in “% of control remaining” value: 98.9149 for the first, 78.5023 for the second.

Compared with CC(C)(C)OC(=O)NCc1ccc(CNCc2ccc(-c3ccccc3)cc2)cc1 [CBK056706], Cc1ccc(S(=O)(=O)N(CC(=O)O)c2ccc(C)c(C)c2)cc1 [CBK263778] is higher in “% of control remaining” value: 56.9843 for the first, 110.761 for the second.

Compared with O=C1NC/C=C/CC2(CCN(Cc3ccccc3)CC2)C(=O)NCCOc2ccccc21 [CBK292097], CC(C)(CO)CCCn1cncc1-c1cnn(-c2ccc(F)cc2)c1 [CBK281466] is lower in “% of control remaining” value: 95.073 for the first, 80.8211 for the second.

CNC(=O)CN(CCO)Cc1cc(Br)ccc1F [CBK304941] was tested, and the “% of control remaining” value was 59.9815.
